# From the supplement of paper PMC8728848
# The list shows a part of the results.
# B1: Siglec-E (Mus musculus), Q91Y57 (protein)
# chain: MLLLLLLLLLWGIKGVEGQNPQEVFTLNVERKVVVQEGLCVLVPCNFSYLKKRLTDWTDSDPVHGFWYREGTDRRKDSIVATNNPIRKAVKETRNRFFLLGDPWRNDCSLNIREIRKKDAGLYFFRLERGKTKYNYMWDKMTLVVTALTNTPQILLPETLEAGHPSNLTCSVPWDCGWTAPPIFSWTGTSVSFLSTNTTGSSVLTITPQPQDHGTNLTCQVTLPGTNVSTRMTTRLNVSYAPKNLTVTIYQGADSVSTILKNGSSLPISEGQSLRLICSTDSYPPANLSWSWDNLTLCPSKLSKPGLLELFPVHLKHGGVYTCQAQHALGSQHISLSLSPQSSATLSEMMMGTFVGSGVTALLFLSVCILLLAVRSYRRKPARPAVVAPHPDALKVSVSQNPLVESQADDSSEPLPSILEAAPSSTEEEIHYATLSFHEMKPMNLWGQQDTTTEYSEIKFPQRTAWP
# Legend:
# Assay in all cases: glycan array binding signal (z-score within array); higher = stronger binding
# Conditions in all cases: glycan notation: IUPAC condensed, linker removed
# [1] = biological target: Neu5Ac(a2-6)Gal(b1-4)GlcNAc(b1-2)Man(a1-3)[GlcNAc(b1-4)][Neu5Ac(a2-6)Gal(b1-4)GlcNAc(b1-2)Man(a1-6)]Man(b1-4)GlcNAc(b1-4)GlcNAc
# Summary of the method: (§1)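 Glycan array data were curated from 3228 arrays in the Consortium for Functional Glycomics database and kept only where the protein sequence was available. Glycan names were converted to IUPAC-condensed notation, and columns mapping to the same glycan were averaged. The binding signal is a within-array Z-score, averaged across arrays of the same protein sequence at different concentrations or buffers and across linkers. Negative Z-scores can be read as non-binding.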
# [2] = biological target: Neu5Ac(a2-6)Gal(b1-4)GlcNAc(b1-2)Man(a1-3)[Man(a1-6)]Man(b1-4)GlcNAc(b1-4)GlcNAc
# Summary of the method: as §1
# [3] = biological target: Neu5Ac(a2-6)Gal(b1-4)GlcNAc(b1-2)Man(a1-3)[Neu5Ac(a2-3)Gal(b1-4)GlcNAc(b1-2)Man(a1-6)]Man(b1-4)GlcNAc(b1-4)GlcNAc
# Summary of the method: as §1
# [4] = biological target: Neu5Ac(a2-6)Gal(b1-4)GlcNAc(b1-2)Man(a1-3)[Neu5Ac(a2-6)Gal(b1-4)GlcNAc(b1-2)Man(a1-6)]Man(b1-4)GlcNAc(b1-4)GlcNAc
# Summary of the method: as §1
# [5] = biological target: Neu5Ac(a2-6)Gal(b1-4)GlcNAc(b1-2)Man(a1-3)[Neu5Ac(a2-6)Gal(b1-4)GlcNAc(b1-2)Man(a1-6)]Man(b1-4)GlcNAc(b1-4)[Fuc(a1-6)]GlcNAc
# Summary of the method: as §1
# [6] = biological target: Neu5Ac(a2-6)Gal(b1-4)GlcNAc(b1-2)Man(a1-6)Man(b1-4)GlcNAc(b1-4)GlcNAc
# Summary of the method: as §1
# [7] = biological target: Neu5Ac(a2-6)Gal(b1-4)GlcNAc(b1-2)Man(a1-6)[Gal(b1-4)GlcNAc(b1-2)Man(a1-3)]Man(b1-4)GlcNAc(b1-4)GlcNAc
# Summary of the method: as §1
# [8] = biological target: Neu5Ac(a2-6)Gal(b1-4)GlcNAc(b1-2)Man(a1-6)[GlcNAc(b1-2)Man(a1-3)]Man(b1-4)GlcNAc(b1-4)GlcNAc
# Summary of the method: as §1
# [9] = biological target: Neu5Ac(a2-6)Gal(b1-4)GlcNAc(b1-2)Man(a1-6)[Man(a1-3)]Man(b1-4)GlcNAc(b1-4)GlcNAc
# Summary of the method: as §1
# [10] = biological target: Neu5Ac(a2-6)Gal(b1-4)GlcNAc(b1-2)[Neu5Ac(a2-6)Gal(b1-4)GlcNAc(b1-4)]Man(a1-3)[GlcNAc(b1-4)][Neu5Ac(a2-6)Gal(b1-4)GlcNAc(b1-2)[Neu5Ac(a2-6)Gal(b1-4)GlcNAc(b1-6)]Man(a1-6)]Man(b1-4)GlcNAc(b1-4)GlcNAc
# Summary of the method: as §1
# [11] = biological target: Neu5Ac(a2-6)Gal(b1-4)GlcNAc(b1-2)[Neu5Ac(a2-6)Gal(b1-4)GlcNAc(b1-4)]Man(a1-3)[GlcNAc(b1-4)][Neu5Ac(a2-6)Gal(b1-4)GlcNAc(b1-4)Man(a1-6)]Man(b1-4)GlcNAc(b1-4)GlcNAc
# Summary of the method: as §1
# [12] = biological target: Neu5Ac(a2-6)Gal(b1-4)GlcNAc(b1-2)[Neu5Ac(a2-6)Gal(b1-4)GlcNAc(b1-6)]Man(a1-6)[Neu5Ac(a2-6)Gal(b1-4)GlcNAc(b1-2)Man(a1-3)][GlcNAc(b1-4)]Man(b1-4)GlcNAc(b1-4)GlcNAc
# Summary of the method: as §1
# [13] = biological target: Neu5Ac(a2-6)Gal(b1-4)GlcNAc(b1-3)Gal(b1-3)GlcNAc
# Summary of the method: as §1
# [14] = biological target: Neu5Ac(a2-6)Gal(b1-4)GlcNAc(b1-3)Gal(b1-4)GlcNAc
# Summary of the method: as §1
# [15] = biological target: Neu5Ac(a2-6)Gal(b1-4)GlcNAc(b1-3)Gal(b1-4)GlcNAc(b1-2)Man(a1-3)[Neu5Ac(a2-6)Gal(b1-4)GlcNAc(b1-3)Gal(b1-4)GlcNAc(b1-2)Man(a1-6)]GalNAc
# Summary of the method: as §1
# [16] = biological target: Neu5Ac(a2-6)Gal(b1-4)GlcNAc(b1-3)Gal(b1-4)GlcNAc(b1-3)Gal(b1-4)GlcNAc
# Summary of the method: as §1
# [17] = biological target: Neu5Ac(a2-6)Gal(b1-4)GlcNAc(b1-3)Gal(b1-4)GlcNAc(b1-3)Gal(b1-4)GlcNAc(b1-2)Man(a1-3)[Neu5Ac(a2-6)Gal(b1-4)GlcNAc(b1-3)Gal(b1-4)GlcNAc(b1-3)Gal(b1-4)GlcNAc(b1-2)Man(a1-6)]GalNAc
# Summary of the method: as §1
# [18] = biological target: Neu5Ac(a2-6)Gal(b1-4)GlcNAc(b1-3)Gal(b1-4)GlcNAc(b1-3)GalNAc
# Summary of the method: as §1
# [19] = biological target: Neu5Ac(a2-6)Gal(b1-4)GlcNAc(b1-3)Gal(b1-4)GlcNAc(b1-3)[Neu5Ac(a2-6)Gal(b1-4)GlcNAc(b1-3)Gal(b1-4)GlcNAc(b1-6)]GalNAc
# Summary of the method: as §1
# [20] = biological target: Neu5Ac(a2-6)Gal(b1-4)GlcNAc(b1-3)Gal(b1-4)GlcNAc(b1-6)[Gal(b1-3)]GalNAc
# Summary of the method: as §1
# [21] = biological target: Neu5Ac(a2-6)Gal(b1-4)GlcNAc(b1-3)Gal(b1-4)[Fuc(a1-3)]GlcNAc(b1-3)Gal(b1-4)[Fuc(a1-3)]GlcNAc
# Summary of the method: as §1
# [22] = biological target: Neu5Ac(a2-6)Gal(b1-4)GlcNAc(b1-3)GalNAc
# Summary of the method: as §1
# [23] = biological target: Neu5Ac(a2-6)Gal(b1-4)GlcNAc(b1-3)[Neu5Ac(a2-6)Gal(b1-4)GlcNAc(b1-6)]GalNAc
# Summary of the method: as §1
# [24] = biological target: Neu5Ac(a2-6)Gal(b1-4)GlcNAc(b1-6)GalNAc
# Summary of the method: as §1
# [25] = biological target: Neu5Ac(a2-6)Gal(b1-4)GlcNAc(b1-6)[Gal(b1-3)GlcNAc(b1-3)]Gal(b1-4)Glc
# Summary of the method: as §1
# [26] = biological target: Neu5Ac(a2-6)Gal(b1-4)GlcNAc(b1-6)[Gal(b1-3)]GalNAc
# Summary of the method: as §1
# [27] = biological target: Neu5Ac(a2-6)Gal(b1-4)GlcNAc6S
# Summary of the method: as §1
# Neu5Ac(a2-6)GalNAc = biological target: Neu5Ac(a2-6)GalNAc
# Summary of the method: as §1
# [28] = biological target: Neu5Ac(a2-6)GalNAc(b1-4)GlcNAc
# Summary of the method: as §1
# [29] = biological target: Neu5Ac(a2-6)GalNAc(b1-4)GlcNAc6S
# Summary of the method: as §1
# [30] = biological target: Neu5Ac(a2-6)GlcNAc(b1-4)GlcNAc
# Summary of the method: as §1
binder,measurement,setting,value
B1,glycan array binding signal (z-score),[1],-0.37
same,glycan array binding signal (z-score),[2],-0.168
same,glycan array binding signal (z-score),[3],0.024
same,glycan array binding signal (z-score),[4],-0.422
same,glycan array binding signal (z-score),[5],-0.207
same,glycan array binding signal (z-score),[6],-0.327
same,glycan array binding signal (z-score),[7],-0.422
same,glycan array binding signal (z-score),[8],-0.374
same,glycan array binding signal (z-score),[9],-0.315
same,glycan array binding signal (z-score),[10],-0.036
same,glycan array binding signal (z-score),[11],0.587
same,glycan array binding signal (z-score),[12],-0.4
same,glycan array binding signal (z-score),[13],-0.164
same,glycan array binding signal (z-score),[14],-0.418
same,glycan array binding signal (z-score),[15],-0.591
same,glycan array binding signal (z-score),[16],-0.444
same,glycan array binding signal (z-score),[17],-0.29
same,glycan array binding signal (z-score),[18],-0.338
same,glycan array binding signal (z-score),[19],-0.39
same,glycan array binding signal (z-score),[20],0.96
same,glycan array binding signal (z-score),[21],-0.23
same,glycan array binding signal (z-score),[22],1.45
same,glycan array binding signal (z-score),[23],-0.052
same,glycan array binding signal (z-score),[24],-0.102
same,glycan array binding signal (z-score),[25],-0.217
same,glycan array binding signal (z-score),[26],-0.369
same,glycan array binding signal (z-score),[27],0.569
same,glycan array binding signal (z-score),Neu5Ac(a2-6)GalNAc,-0.32
same,glycan array binding signal (z-score),[28],-0.573
same,glycan array binding signal (z-score),[29],0.088
same,glycan array binding signal (z-score),[30],-0.619
